Results are given in words; binding and its absence hold for the method and conditions named. Binding seen in cells or lysates may run through a third protein. Some binding calls cover weakened binding; strength is not graded here. For some of these results: Where a sequence is shown, tags or fusion partners need not be part of it.
T1: Nuclear export factor 1 (NXF1), endogenous (mouse (endogenous in P19)) (UniProt Q99JX7)
T1 sequence: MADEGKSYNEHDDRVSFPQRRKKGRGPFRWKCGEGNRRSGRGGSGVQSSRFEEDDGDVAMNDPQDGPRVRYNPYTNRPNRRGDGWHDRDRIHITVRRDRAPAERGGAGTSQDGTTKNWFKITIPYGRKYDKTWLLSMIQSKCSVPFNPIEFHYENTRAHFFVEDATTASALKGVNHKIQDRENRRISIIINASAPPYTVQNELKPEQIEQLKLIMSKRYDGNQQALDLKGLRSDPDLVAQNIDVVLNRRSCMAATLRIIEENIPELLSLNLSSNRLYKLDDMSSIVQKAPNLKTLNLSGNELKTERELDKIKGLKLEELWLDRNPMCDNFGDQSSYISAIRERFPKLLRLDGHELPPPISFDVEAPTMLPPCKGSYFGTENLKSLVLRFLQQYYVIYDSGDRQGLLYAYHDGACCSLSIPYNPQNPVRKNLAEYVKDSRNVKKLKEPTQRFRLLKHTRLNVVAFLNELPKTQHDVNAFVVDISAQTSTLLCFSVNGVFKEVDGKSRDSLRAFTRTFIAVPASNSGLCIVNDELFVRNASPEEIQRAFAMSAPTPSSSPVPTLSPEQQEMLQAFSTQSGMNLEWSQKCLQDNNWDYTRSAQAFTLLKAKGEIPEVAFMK

By UniProt entry, the sequences of proteins in these tests, tags left out.
UniProt Q6PDM2: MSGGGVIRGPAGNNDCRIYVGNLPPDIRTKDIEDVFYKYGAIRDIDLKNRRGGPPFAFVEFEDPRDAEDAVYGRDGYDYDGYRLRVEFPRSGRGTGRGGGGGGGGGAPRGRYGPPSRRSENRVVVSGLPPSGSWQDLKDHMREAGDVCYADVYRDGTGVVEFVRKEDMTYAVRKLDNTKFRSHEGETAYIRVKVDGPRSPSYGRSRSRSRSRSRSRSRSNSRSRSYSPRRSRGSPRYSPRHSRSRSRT
UniProt O70551: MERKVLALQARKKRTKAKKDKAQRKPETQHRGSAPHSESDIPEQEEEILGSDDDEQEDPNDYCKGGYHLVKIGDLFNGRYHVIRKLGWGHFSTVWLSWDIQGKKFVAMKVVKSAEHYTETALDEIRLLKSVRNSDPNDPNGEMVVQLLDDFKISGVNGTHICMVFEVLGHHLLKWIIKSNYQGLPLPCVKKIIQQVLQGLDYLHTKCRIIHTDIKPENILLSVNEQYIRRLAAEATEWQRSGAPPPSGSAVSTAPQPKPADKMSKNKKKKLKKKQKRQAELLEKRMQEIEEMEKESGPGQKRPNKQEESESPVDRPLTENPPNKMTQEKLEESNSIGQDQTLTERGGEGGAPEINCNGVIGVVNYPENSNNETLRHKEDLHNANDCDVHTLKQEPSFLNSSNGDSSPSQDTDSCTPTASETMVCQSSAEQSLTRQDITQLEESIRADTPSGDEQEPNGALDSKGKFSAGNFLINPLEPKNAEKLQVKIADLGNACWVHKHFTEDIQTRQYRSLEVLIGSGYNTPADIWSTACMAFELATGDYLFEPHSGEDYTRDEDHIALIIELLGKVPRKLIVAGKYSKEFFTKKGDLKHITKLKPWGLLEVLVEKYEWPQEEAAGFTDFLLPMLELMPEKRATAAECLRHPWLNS

T2: NXF1-GFP (mouse) (UniProt Q99JX7)
T2 sequence: T1 sequence

B1: GFP-tagged SRSF4 (protein, UniProt Q8VE97 1-489)
chain: MPRVYIGRLSYQARERDVERFFKGYGKILEVDLKNGYGFVEFDDLRDADDAVYELNGKDLCGERVIVEHARGPRRDGSYGSGRSGYGYRRSGRDKYGPPTRTEYRLIVENLSSRCSWQDLKDYMRQAGEVTYADAHKGRKNEGVIEFVSYSDMKRALEKLDGTEVNGRKIRLVEDKPGSRRRRSYSRSRSHSRSRSRSRHSRKSRSRSGSSKSSHSKSRSRSRSGSHSRSKSRSRSQSRSRSKKEKSRSPSKDNKSRSRSRSPDKSRSKSKDHAEDKLQNNDSAGKAKSHSPSRHDSKSRSRSQERRAEEERRRSVSRARSQEKSRSQEKSLLKSRSRSRSRSRSRSKDKRKGRKRSRDESRSRSRSKSERSRKHSSKRDSKVSSSSSSSKKKKDTDHSRSPSRSVSKEREHAKAESGQRGSRAEGESEAPNPEPRARSRSTSKSKPNVPAESRSRSKSASKTRSRSKSPSRSASRSPSRSRSRSHSRS
B2: GFP-tagged SRSF5 (protein, UniProt O35326 1-269)
chain: MSGCRVFIGRLNPAAREKDVERFFKGYGRIRDIDLKRGFGFVEFEDPRDADDAVYELDGKELCSERVTIEHARARSRGGRGRGRYSDRFSSRRPRNDRRNAPPVRTENRLIVENLSSRVSWQDLKDFMRQAGEVTFADAHRPKLNEGVVEFASYGDLKNAIEKLSGKEINGRKIKLIEGSKRHRSRSRSRSRTRSSSRSRSRSRSRRSKSYSRSRSRSRSRSKSRSGSRSPVPEKSQKRGSSSRSKSPASVDRQRSRSRSRSRSVDSGN
B3: GFP-tagged SRSF7 (protein, UniProt Q8BL97 1-267)
chain: MRSSARGRPLQAATAFFLSLFFFLRRFERGFWLWGGDSETKVYVGNLGTGAGKGELERAFSYYGPLRTVWIARNPPGFAFVEFEDPRDAEDAVRGLDGKVICGSRVRVELSTGMPRRSRFDRPPARRPFDPNDRCYECGEKGHYAYDCHRYSRRRRSRSRSRSHSRSRGRRYSRSRSRSRGRRSRSASPRRSRSVSLRRSRSASLRRSRSGSIIGSRYFQSRSRSRSRSRSISRPRSSRSKSRSPSPKRSRSPSGSPHRSASPERMD
B4: SRSF3, endogenous (protein, UniProt P84104 1-164)
chain: MHRDSCPLDCKVYVGNLGNNGNKTELERAFGYYGPLRSVWVARNPPGFAFVEFEDPRDAADAVRELDGRTLCGCRVRVELSNGEKRSRNRGPPPSWGRRPRDDYRRRSPPPRRRSPRRRSFSRSRSRSLSRDRRRERSLSRERNHKPSRSFSRSRSRSRSNERK
B5: SRSF7, endogenous (protein, UniProt Q8BL97 1-267)
chain: B3 chain
B6: GFP-tagged SRSF3 (protein, UniProt P84104 1-164)
chain: B4 chain

Assays:
[1] = molecular target: GFP-tagged SRSF1 (mouse) (UniProt Q6PDM2); test: co-IP; time course with different incubation times of RNase A, after 40 min of digestion (Supplemental Fig. S2F)
[2] = molecular target: GFP-tagged SRSF1 (mouse) (UniProt Q6PDM2); test: co-IP; time course with different incubation times of RNase A, time points before 40 min (Supplemental Fig. S2F)
[3] = molecular target: T1, Nuclear export factor 1 (NXF1), endogenous (mouse (endogenous in P19)); test: co-IP; time course with different incubation times of RNase A, after 40 min of digestion (Supplemental Fig. S2F)
[4] = molecular target: T1, Nuclear export factor 1 (NXF1), endogenous (mouse (endogenous in P19)); test: co-IP; time course with different incubation times of RNase A, time points before 40 min (Supplemental Fig. S2F)
[5] = molecular target: T1, Nuclear export factor 1 (NXF1), endogenous (mouse (endogenous in P19)); test: co-IP; semiquantitative forward (anti-GFP) and reverse (anti-NXF1) co-IPs from P19 BAC cell lines, without RNase A
[6] = molecular target: T1, Nuclear export factor 1 (NXF1), endogenous (mouse (endogenous in P19)); test: co-IP; semiquantitative forward (anti-GFP) and reverse (anti-NXF1) co-IPs from P19 BAC cell lines, after RNase A treatment
[7] = molecular target: T2, NXF1-GFP (mouse); test: co-IP; NXF1-GFP precipitated with anti-GFP, with or without RNase A (long); blots with phosphorylation-dependent mAb104 and phosphorylation-independent SR protein-specific antibodies

Row | Molecule | binding [5] | binding [6] | further results
1 | SR protein kinase 1 (SRPK1), endogenous (from UniProt O70551 1-648) (enzyme) | – | – | binding [1]: binds; binding [2]: binds
2 | GFP-tagged SRSF1 (from UniProt Q6PDM2 1-248) | binds | binds | binding [3]: no binding (condition: after 40 min of RNase A digestion); binding [4]: binds
3 | B1 | binds | binds | –
4 | B2 | binds | binds | –
5 | B3 | binds | binds | –
6 | B4 | – | – | binding [7]: binds
7 | B5 | – | – | binding [7]: binds
8 | B6 | binds | binds | –
